Source: the supplement of paper PMC12217912
The list shows a part of the results. The full chains were built here from the parent and the listed change. Inactive controls read about 0.05.

B1: TEV protease; numbered along this chain (parent)
chain: MGESLFKGPRDYNPISSSICHLTNESDGHTTSLYGIGFGPFIITNKHLFRRNNGTLVVQSLHGVFKVKDTTTLQQHLVDGRDMIIIRMPKDFPPFPQKLKFREPQREERICLVTTNFQTKSMSSMVSDTSCTFPSGDGIFWKHWIQTKDGQCGSPLVSTRDGFIVGIHSASNFTNTNNYFTSVPKNFMELLTNQEAQQWVSGWRLNADSVLWGGHKVFMVKPEEPFQPVKEATQL

Variants of: B1
Assay: raw area under fraction-flipped curve 0-4 h after induction (AUC4h, not background-subtracted), DNA-recorder readout of cleavage of the substrate (dimensionless); higher = more cleavage of the substrate by the protease variant
Settings: temperature: 34 °C; time window: 0-4 h after rhamnose induction
Method: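 In vivo DNA recorder in E. coli TOP10(DE3) ΔrhaA at 34 °C. Each TEVp single-site mutant (parent TEVp 0) is paired with a single-site variant of the 7-mer TEVs (canonical ENLYFQ|S). The substrate sits between flexible linkers in a Bxb1-sfGFP-TEVs-SsrA fusion, so cleavage stabilises Bxb1 and speeds flipping of a recombination array, read by NGS. The value is the raw area under the fraction-flipped curve over 0-4 h after rhamnose induction (AUC4h), with ≥20 reads per time point. It is not background-subtracted; inactive controls average about 0.047.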
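Note: Bxb1 expression induced with 0.2% (w/v) L-rhamnose at OD600 near 0.5, cultures sampled hourly, flipped fraction per protease–substrate barcode pair counted by paired-end Illumina sequencing.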

Variant | area with substrate ECLYFQS | area with substrate EDLYFQS | area with substrate EELYFQS | area with substrate EGLYFQS | area with substrate EHLYFQS | area with substrate EILYFQS | area with substrate EKLYFQS | area with substrate EPLYFQS | area with substrate EQLYFQS | area with substrate ESLYFQS | area with substrate ETLYFQS | area with substrate EVLYFQS | area with substrate EMLYFQS | area with substrate EYLYFQS | area with substrate ELLYFQS | area with substrate ERLYFQS | area with substrate EWLYFQS | area with substrate EFLYFQS
MGESLDKGPRDYNPISSSICHLTNESDGHTTSLYGIGFGPFIITNKHLFRRNNGTLVVQSLHGVFKVKDTTTLQQHLVDGRDMIIIRMPKDFPPFPQKLKFREPQREERICLVTTNFQTKSMSSMVSDTSCTFPSGDGIFWKHWIQTKDGQCGSPLVSTRDGFIVGIHSASNFTNTNNYFTSVPKNFMELLTNQEAQQWVSGWRLNADSVLWGGHKVFMVKPEEPFQPVKEATQL [F6D] | 0.0794 | 0.118 | 0.118 | 0.0895 | 0.0975 | 0.0893 | 0.0933 | 0.0866 | 0.126 | 0.0946 | 0.0777 | 0.0693 | – | – | – | – | – | –
MGESLSKGPRDYNPISSSICHLTNESDGHTTSLYGIGFGPFIITNKHLFRRNNGTLVVQSLHGVFKVKDTTTLQQHLVDGRDMIIIRMPKDFPPFPQKLKFREPQREERICLVTTNFQTKSMSSMVSDTSCTFPSGDGIFWKHWIQTKDGQCGSPLVSTRDGFIVGIHSASNFTNTNNYFTSVPKNFMELLTNQEAQQWVSGWRLNADSVLWGGHKVFMVKPEEPFQPVKEATQL [F6S] | 0.103 | 0.116 | – | – | – | 0.101 | 0.103 | – | 0.102 | 0.0931 | – | 0.0927 | 0.116 | 0.124 | – | – | – | –
MGESLWKGPRDYNPISSSICHLTNESDGHTTSLYGIGFGPFIITNKHLFRRNNGTLVVQSLHGVFKVKDTTTLQQHLVDGRDMIIIRMPKDFPPFPQKLKFREPQREERICLVTTNFQTKSMSSMVSDTSCTFPSGDGIFWKHWIQTKDGQCGSPLVSTRDGFIVGIHSASNFTNTNNYFTSVPKNFMELLTNQEAQQWVSGWRLNADSVLWGGHKVFMVKPEEPFQPVKEATQL [F6W] | 0.108 | – | 0.113 | – | 0.0581 | 0.0919 | 0.0864 | 0.0967 | – | 0.119 | – | 0.0713 | 0.112 | – | 0.0789 | 0.122 | 0.105 | –
MGESLIKGPRDYNPISSSICHLTNESDGHTTSLYGIGFGPFIITNKHLFRRNNGTLVVQSLHGVFKVKDTTTLQQHLVDGRDMIIIRMPKDFPPFPQKLKFREPQREERICLVTTNFQTKSMSSMVSDTSCTFPSGDGIFWKHWIQTKDGQCGSPLVSTRDGFIVGIHSASNFTNTNNYFTSVPKNFMELLTNQEAQQWVSGWRLNADSVLWGGHKVFMVKPEEPFQPVKEATQL [F6I] | 0.111 | – | 0.134 | – | – | – | 0.118 | – | – | 0.1 | – | – | 0.129 | – | 0.13 | – | – | –
MGESLFGGPRDYNPISSSICHLTNESDGHTTSLYGIGFGPFIITNKHLFRRNNGTLVVQSLHGVFKVKDTTTLQQHLVDGRDMIIIRMPKDFPPFPQKLKFREPQREERICLVTTNFQTKSMSSMVSDTSCTFPSGDGIFWKHWIQTKDGQCGSPLVSTRDGFIVGIHSASNFTNTNNYFTSVPKNFMELLTNQEAQQWVSGWRLNADSVLWGGHKVFMVKPEEPFQPVKEATQL [K7G] | 0.118 | 0.116 | – | 0.102 | 0.104 | 0.0786 | 0.102 | 0.156 | – | 0.104 | – | 0.0862 | 0.0923 | – | 0.0738 | 0.115 | 0.104 | 0.0945
MGESLFKGPRDYNLISSSICHLTNESDGHTTSLYGIGFGPFIITNKHLFRRNNGTLVVQSLHGVFKVKDTTTLQQHLVDGRDMIIIRMPKDFPPFPQKLKFREPQREERICLVTTNFQTKSMSSMVSDTSCTFPSGDGIFWKHWIQTKDGQCGSPLVSTRDGFIVGIHSASNFTNTNNYFTSVPKNFMELLTNQEAQQWVSGWRLNADSVLWGGHKVFMVKPEEPFQPVKEATQL [P14L] | 0.107 | 0.127 | 0.145 | – | 0.102 | 0.0965 | 0.123 | – | 0.125 | 0.113 | 0.146 | 0.104 | 0.112 | – | – | 0.105 | 0.125 | 0.102
MGESWFKGPRDYNPISSSICHLTNESDGHTTSLYGIGFGPFIITNKHLFRRNNGTLVVQSLHGVFKVKDTTTLQQHLVDGRDMIIIRMPKDFPPFPQKLKFREPQREERICLVTTNFQTKSMSSMVSDTSCTFPSGDGIFWKHWIQTKDGQCGSPLVSTRDGFIVGIHSASNFTNTNNYFTSVPKNFMELLTNQEAQQWVSGWRLNADSVLWGGHKVFMVKPEEPFQPVKEATQL [L5W] | 0.115 | – | 0.172 | 0.125 | – | 0.0978 | 0.0964 | 0.155 | 0.137 | 0.118 | 0.102 | 0.112 | – | – | 0.0884 | 0.121 | 0.103 | 0.186
MGESLFKGPRDYNPISTSICHLTNESDGHTTSLYGIGFGPFIITNKHLFRRNNGTLVVQSLHGVFKVKDTTTLQQHLVDGRDMIIIRMPKDFPPFPQKLKFREPQREERICLVTTNFQTKSMSSMVSDTSCTFPSGDGIFWKHWIQTKDGQCGSPLVSTRDGFIVGIHSASNFTNTNNYFTSVPKNFMELLTNQEAQQWVSGWRLNADSVLWGGHKVFMVKPEEPFQPVKEATQL [S17T] | 0.131 | 0.162 | – | – | 0.0959 | 0.106 | – | 0.128 | 0.134 | 0.115 | 0.13 | – | – | 0.0987 | 0.0944 | 0.0993 | 0.123 | 0.11
MGESLFKGPRDYNPISISICHLTNESDGHTTSLYGIGFGPFIITNKHLFRRNNGTLVVQSLHGVFKVKDTTTLQQHLVDGRDMIIIRMPKDFPPFPQKLKFREPQREERICLVTTNFQTKSMSSMVSDTSCTFPSGDGIFWKHWIQTKDGQCGSPLVSTRDGFIVGIHSASNFTNTNNYFTSVPKNFMELLTNQEAQQWVSGWRLNADSVLWGGHKVFMVKPEEPFQPVKEATQL [S17I] | 0.0933 | 0.117 | – | 0.092 | 0.107 | 0.0633 | – | 0.0995 | – | 0.0848 | 0.0859 | – | – | 0.068 | 0.101 | – | – | –
MGESLFKGIRDYNPISSSICHLTNESDGHTTSLYGIGFGPFIITNKHLFRRNNGTLVVQSLHGVFKVKDTTTLQQHLVDGRDMIIIRMPKDFPPFPQKLKFREPQREERICLVTTNFQTKSMSSMVSDTSCTFPSGDGIFWKHWIQTKDGQCGSPLVSTRDGFIVGIHSASNFTNTNNYFTSVPKNFMELLTNQEAQQWVSGWRLNADSVLWGGHKVFMVKPEEPFQPVKEATQL [P9I] | 0.128 | 0.129 | 0.132 | – | – | 0.101 | 0.114 | 0.126 | 0.156 | 0.0527 | 0.132 | – | – | – | 0.0732 | 0.132 | – | –
